Out of some 94,000 compounds screened, about 6,200 (6.6%) were called active. The inconclusive results got no clear call from the source; some entries with a clear call stand among them for comparison. Calls come from the whole dose curve; as a rule, active = well fitted inhibition curve with a large enough effect; inconclusive = small, poorly fitted or top-dose-only effect; inactive = flat fitted curve, though single readings scatter. Potencies of inconclusive entries are doubtful fits and often do not repeat.
Experiment: Cytotoxic Profiling in HEK 293 Cell Line of Diverse Libraries Using Quantitative High-Throughput Screening; note: nearly all actives have a fitted effect of over 60% in size
Conditions: HEK 293 viability, ATP luminescence (CellTiter-Glo), 48-72 h; activity change, negative = cytotoxicity: at 115 µM (top of the series) unless noted; series mostly up to 115 µM
How it was run: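 Luminescence from cellular ATP, measured with CellTiter-Glo, indicates HEK 293 viability. Cells plated at 250 cells/well are treated with compound for 48 or 72 hr at 37 degree Celsius before reagent addition.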
% is set by controls: 0 for no effect and ±100 for the full control effect; potency is the fitted concentration of half-maximal effect; tags give direction and shape of the fitted curve.

Row | SMILES | activity change, negative = cytotoxicity | Potency | outcome
1 | COc1ccc(-c2ccc3nnc(CNC(=O)c4cccc(NC(C)=O)c4)n3n2)cc1 | inactive: -15.8% | – | –
2 | CC1(COc2cccnc2)COc2ccc(C(=O)NCc3cnccn3)cc2N1 (stereo unspecified) | – | inconclusive: 79.4 µM [inhibitor, partial curve] | –
3 | O=C(CCCc1c[nH]c2ccccc12)N1CCC(c2noc(COc3ccc(F)cc3)n2)CC1 | – | inconclusive: 20 µM [inhibitor, full curve, poor fit] | –
4 | COc1ccc(C2Cn3cnc(C(=O)N4CCC(C(=O)Nc5ccccc5F)CC4)c3CO2)cc1 (stereo unspecified) | inactive: -30% | – | –
5 | COC[C@@H]1CN(C(=O)C2=NNC(=O)CC2)C[C@H]1c1ccncc1 | – | – | inactive
6 | COc1ccc(CC(=O)N[C@H]2[C@H](O)[C@H](O)C[C@@H]2c2ccc(OC)cc2)cc1 | inactive: -2.73% [at 172 µM] | – | –
7 | COc1ccc(C(=O)N[C@@H]2CN(c3ncccn3)C[C@H]2CN(C)C)cn1 | – | – | inactive
8 | COCc1nc(CCNC(=O)CCCc2cn(Cc3ccccc3Cl)c3ccccc23)no1 | – | inconclusive: 50.1 µM [inhibitor, partial curve, poor fit] | –
9 | O=C(c1ccc2c(c1)OCO2)N1CCc2nn(Cc3ccccc3)c(=O)n2CC1 | – | inconclusive: 89.1 µM [inhibitor, partial curve, poor fit] | –
10 | O=C(Nc1cc(-c2ccccn2)nn1-c1ccccc1)c1ccccc1F | – | inconclusive: 89.1 µM [inhibitor, single point] | –
11 | Cc1cccc(NC(=O)Cn2c(N3CCN(c4ccccc4)CC3)nc(C)cc2=O)c1 | – | inconclusive: 89.1 µM [inhibitor, partial curve, poor fit] | –
12 | COc1ccc(CCNC(=O)c2c(C)noc2-c2ccccc2Cl)cc1 | – | inconclusive: 89.1 µM [inhibitor, single point] | –
13 | COc1ccc(-c2nc(C(C)C)nc3c2CCN([S+](=O)([O-])c2cccc(C(F)(F)F)c2)CC3)cc1 | – | active: 39.8 µM | –
14 | O=C(C1CCCC1)N1CCC(Oc2cccc(F)c2)C1 (stereo unspecified) | – | inconclusive: 89.1 µM [inhibitor, single point] | –
15 | O=C(c1cccc2[nH]ccc12)N1CCC2(CC1)N=C(c1cccc(Br)c1)NO2 | – | inconclusive: 50.1 µM [inhibitor, partial curve, poor fit] | –
16 | C=CCNc1nc(CC)nc2c1CCN(C(=O)c1cn(C)nc1C)CC2 | inactive: -0.918% | – | –
17 | COc1ccccc1C(=O)NC1CCCN(c2cc(-c3ccc(F)cc3)[nH]n2)C1 (stereo unspecified) | – | inconclusive: 44.7 µM [inhibitor, partial curve, poor fit] | –
18 | O=C(Nc1cccnc1)c1ccnc(-c2nnc3ccc(Nc4ccccc4)nn23)c1 | – | inconclusive: 70.8 µM [inhibitor, partial curve] | –
19 | Cc1ccc(C(=O)N2C[C@@H](Oc3ccccc3)C[C@H]2C(=O)N2CCCC2)cn1 | – | inconclusive: 44.7 µM [inhibitor, partial curve, poor fit] | –
20 | Cc1ncoc1C(=O)N1CC[C@H](CO)[C@H](NC(=O)c2ccccc2)C1 | inactive: -11.1% | – | –
21 | Cc1nc(CCC(=O)N2CCCC(CCc3c(F)cccc3F)C2)n[nH]1 (stereo unspecified) | inactive: -5.86% | – | –

Row | SMILES | activity change, negative = cytotoxicity | Potency | outcome
22 | CN1CCN(C(=O)N2CCC3(CC2)CN([S+](C)(=O)[O-])Cc2ccccc2O3)CC1 | – | inconclusive: 89.1 µM [inhibitor, single point] | –
23 | O=C(Cc1ccc2c(c1)OCO2)N1CC(COc2ccccc2)C2(C1)CN(c1ccccc1)C2 (stereo unspecified) | – | inconclusive: 79.4 µM [inhibitor, partial curve] | –
24 | Cc1noc(-c2cccc(OC3CN(C(=O)c4cc(F)ccc4F)C3)c2)n1 | – | inconclusive: 28.2 µM [inhibitor, partial curve] | –
25 | CSc1ccc(-c2noc(-c3ncn4c3COC(c3ccc(F)cc3)C4)n2)cc1 (stereo unspecified) | – | active: 31.6 µM | –
26 | COc1ccc(N2CCN(C(=O)CN3C(=O)NC4(CCC(C)CC4)C3=O)CC2)cc1 (stereo unspecified) | inactive: -1.44% | – | –
27 | Cc1noc([C@@H]2CC(F)(F)CN2C(=O)c2ncccc2F)n1 | – | inconclusive: 56.2 µM [inhibitor, partial curve, poor fit] | –
28 | Cc1cccc(NC(=O)CN2C(=O)C(c3ccccc3)=NC23CCCC3)c1C | – | inconclusive: 56.2 µM [inhibitor, partial curve, poor fit] | –
29 | CCCCCNC(=O)c1cc(-c2ccccc2C(F)(F)F)nc2c1cnn2C | – | inconclusive: 56.2 µM [inhibitor, partial curve, poor fit] | –
30 | O=C(c1cccc(Cl)c1)N1CCN(c2ccc3nnc(C4CC4)n3n2)CC1 | – | inconclusive: 50.1 µM [inhibitor, partial curve, poor fit] | –
31 | CN(CCCN1c2ccccc2CCc2ccccc21)C(=O)[C@H]1CCC[C@@H](O)C1 | – | active: 35.5 µM | –
32 | O=C(C1CCC1)N1CCCC(c2noc(COc3ccccc3)n2)C1 (stereo unspecified) | – | inconclusive: 79.4 µM [inhibitor, partial curve, poor fit] | –
33 | COc1ccc(C(=O)N2CCC(Oc3nccnc3N(C)C)C2)c(OC)c1 (stereo unspecified) | – | inconclusive: 25.1 µM [inhibitor, full curve, poor fit] | –
34 | CN(C)c1ccc(-c2nnnn2[C@H]2CO[C@H]3[C@@H]2OC[C@@H]3NC(=O)Nc2ccc(Oc3ccccc3)cc2)cc1 | inactive: -23.3% | – | –
35 | Cc1cc(C)cc(NC(=O)c2cc(-c3ccc[nH]3)n[nH]2)c1 | – | inconclusive: 56.2 µM [inhibitor, partial curve, poor fit] | –
36 | Cc1ccc(-c2nnc3ccc(NCCc4ccccc4)nn23)nc1 | – | active: 56.2 µM | –
37 | O=C(CCc1ccccc1)N1CCN(c2cc(-c3ccccc3)[nH]n2)CC1 | – | inconclusive: 50.1 µM [inhibitor, partial curve, poor fit] | –
38 | COCCN(C)C[C@@H]1CN(C(=O)c2cnc(SC)nc2)C[C@@H]1CO | inactive: -7.35% | – | –
39 | COCC(=O)Nc1ccc(-c2noc([C@@H]3CCCN3CC(C)C)n2)cn1 | – | inconclusive: 100 µM [inhibitor, partial curve] | –
40 | COc1ccc(C(=O)N2CCN(C(=O)c3nnn4c3COC(c3ccc(Cl)cc3)C4)CC2)cc1 (stereo unspecified) | inactive: -35.2% | – | –
41 | O=C(Nc1ccc([C@H]2OCC(=O)N(Cc3ccccc3)[C@@H]2CO)cc1)c1ccc2c(c1)OCO2 | – | inconclusive: 50.1 µM [inhibitor, partial curve, poor fit] | –

From PubChem BioAssay AID1345083 (National Center for Advancing Translational Sciences (NCATS), 2018)
